Reference: the RNAGym collection of RNA variant scans (doi:10.7554/elife.90254)
Read counts are not given, so values of variants with three or more changes are uncertain.

B1: LINE1-mini (parent)
chain: GGCAGAGCUCAACACAGCGUGGCAAAGUGGCUGUGGCUAGACUGCC

Variants of: B1
Assay: self-cleavage, relative activity (ratio to wild type); higher = more cleavage; in vitro, sequencing; the parent is a self-cleaving ribozyme

Variant | self-cleavage
C23A C31A C45U | 0.22
C23G G27A A39U | 0.98
G22U A25U C37U | 0.14
C23G G36A A41C U43A | 0.05
A24C A26C G40U | 0.05
C23A U43G C45A | 0.04
C23A C42A C46G | 0.05
C23A G30U G36A | 0.72
A24C A25G C31G U38G C42A | 0
C23A A25C C45A C46U | 0.07
G22U G27U G29A U34A | 0.31
G22U C31G U38A G44A | 0.02
C23A A39C G44U | 0.06
G22U A39G C42G | 0
C23G A25U G27A A39C G40C | 0.03
C23A A24U G40A C42A | 0.14
G22U U28G C45A | 0.11
C23U G29U C46A | 0.24
C23U G29A G35C A41C C46A | 0.06
G22U U38A G44A | 0.26
C23U A25G G33C G36C G44C | 0.01
G22U A26U A39U | 1.26
C23U G30C G35A A39U | 0.04
C23A G27U U32C C37U C46G | 0.12

Variant | self-cleavage
C23G G27C C37A | 0
C23U U32C U38C | 0.8
C23G A41U C42A | 0.13
C23U U32C U34G G40U | 0.04
C23A U28A G30U | 0.38
C23A U28A G40U C45G | 0.14
C23G U28C G29A G40C | 0.06
C23A A24U G29U | 0.5
C23G G30U G36A | 0.1
G22U G27C G35U G44C | 0.07
C23A A24C G27C C31A G33U C42U | 0.03
G22U A39U U43C | 0.04
G22U U28C C45G | 1.69
C23U G27C C46U | 0.58
G22U A26C C42G | 0.09
G22U U28G C37A C42A | 0.18
C23G G27U G35A G40U | 0.13
G22U C37A A39C | 0.18
C23U C31U G40C | 0.02
C23U U28G U34C U38A | 0.26
C23G A26G G29C | 0.08
C23G C31U A39U C45A | 0.01
C23U A26C G29A G30U G36A U38C C46U | 0.03
C23A A39U C46U | 0.1

Variant | self-cleavage
G22U G30C C31G G40C | 0.02
C23A U28G U43A | 0.04
C23G G27A C37G | 0.01
C23U C31U C45U | 0.4
C23A U34G G44C | 0.04
C23A C31A G44U C45A | 0.22
G22U G36A G40C | 0.06
C23A C31G G33U C46A | 0.03
C23G G33U A39G C45A | 0.03
C23G G27A G40A | 0.07
C23G G30U C46G | 1.92
G22U G30C G36U | 0.04
C23A A25U C42A | 1.46
C23G G40A A41U | 0.06
C23G U32A C37A | 0.12
A24C A25U G44A | 0.14
G22U G30A G35A G36U C42G | 0.03
C23A G33A C45G | 0.04
C23U G30A U43A | 0.27
C23G U38C A39G | 0.6
C23A C31A A39U G40C | 0.02
C23A A41G G44U C45G | 0.04
G22U C23U G36C | 0.07
C23U G30U G40A | 0.07

Variant | self-cleavage
G22U G36C G44A | 0.06
C23U A26U C31U | 0.21
A24C A26U C45G | 0.07
G22U G40C C42A | 0.17
C23G G27A U43A | 0.07
C23G U28C U34A | 0.37
C23G G33U C46U | 0.08
C23G G35C C45G | 0.05
G22U G29C C46A | 1.22
C23U G30A G40U C42A | 0.05
C23G U34G G44A C46A | 0.03
G22U U32A U43A | 0.02
C23U G35U C37A | 0.04
C23U G29A G30U G36U | 0.17
C23G G30A C31U | 0.05
C23A A25C U43C | 0.07
C23A A25C U43A | 0.02
C23G G36U A41G | 0.03
C23G G36U A41C | 0.03
C23A U28G G30U | 0.27
G22U G29C G30A | 0.68
C23G C31A C46A | 0.1
G22U A24U C42U | 0.14
C23A G27A G30U | 2.69

Variant | self-cleavage
C23U G33A U38C | 0.07
C23U A24C G30A C31U G35C C42G C46U | 0.01
G22U C31U A41C G44U | 0.05
C23G A25G G33C G35U G40U | 0.03
C23U U28C G35C C42G | 0.02
G22U U32A G36A | 0.02
C23U G33A C37G A41C | 0.44
C23A A25U G33U | 0.2
C23G A25G G44U | 0.11
C23A G27A A41U U43A | 0.07
C23U A39G G40C C42G | 0.01
C23G G33A G36U | 0.02
G22U U38A C45A | 0.06
C23A A25G U28C U38A | 0.09
C23A A24U A41U | 1.06
C23G G35A G36A G44A C45G | 0.13
C23G C37A G44A | 0.12
C23A G27C G33A G36U | 0.08
C23G A26C U32A U38G | 0.02
C23G G29C G33A G36U | 0.06
C23G A25U C42U | 0.74
C23A G35A C37U G40U | 0.08
C23U A26U G33U | 0.04
C23G G33U G40U | 0.23

Variant | self-cleavage
C23G A24C C31U | 0.08
C23G A24C G33C | 0.01
C23A A26G C42U | 0.12
A24C A26C G36C | 0.12
C23U A25U U34A | 0.05
C23G C45G C46U | 0.2
C23U G30A C46A | 0.09
C23G A41G C46A | 0.12
G22U C37A C46A | 0.01
C23A U38C G40C | 0.02
C23G G33A G40U | 0.03
G22U U34G C45U | 0.21
G22U U34G C45A | 0.19
C23U U28C C37A C45G | 0.1
C23A G29C C37G U43A | 0.01
C23A G29U G33U | 0.07
A24C A26C G35A | 0.09
G22U G35U G36U U43A | 0.03
C23G C37U C45G | 0.01
G22U G30A C31U | 0.07
C23A G29A G33U G35C | 0.02
C23U A41U C42G C46U | 0.01
G22U C23G G29A A39U | 0.28
G22U G36C G40A U43G | 0.07

Variant | self-cleavage
C23G U28C C31U | 0.1
A24C A39G C45U | 0.13
C23G G35A A39U | 0.58
C23A G27C C37G | 0.02
G22U A41G C45G | 0.02
C23A A24G A41U | 0.33
C23G A25C C37A U38G | 0.01
C23A U34G A41C C46U | 0.02
C23G G35C G36A | 0.11
G22U G30U G36U | 0.03
C23G C31A G35U U38C C46U | 0.02
C23A A24C C37U | 0.08
C23G G29A U32A C37U | 0.02
C23A G27A C42U C46U | 0.28
G22U G30A U43G | 0
G22U U32G U43A | 0.06
C23G G27A U38A | 0.21
C23G A24C U28G U32G | 0.02
G22U G33U G44C | 0.05
G22U A26G G44C | 0.12
C23U C31A G35A A41C | 0.02
C23A G33U G36U G40C | 0.01
C23A G27A U38G A39C | 0.02
